# Laboratory results taken from PubChem BioAssay AID662 (National Center for Advancing Translational Sciences (NCATS), 2007).
# Among all 71,000 compounds or so, about 1,800 (2.5%) were called active. The shares of active, inactive and inconclusive entries below differ from those in the screen. Calls come from the whole dose curve; as a rule, active = well fitted activation curve with a large enough effect in the signal ratio, with a control signal flat (not every such curve was filed as active); inconclusive = small, poorly fitted or top-dose-only effect, or effect the other way, or a change in a side signal; inactive = flat fitted curve, though single readings scatter; the % refers to the signal ratio. Potencies of inconclusive entries are doubtful fits and often do not repeat.
# Test: Cell signaling CRE-BLA (Fsk stim); for activity change, negative = inhibition: % of control where 0% means no effect
# Settings: CHO CRE-bla reporter (cAMP response element driving beta-lactamase), forskolin EC10, beta-lactamase ratio; activity change, negative = inhibition: at 38.2 µM (top of the series) unless noted
# Outline: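 AC50 values, positive or negative, reflect shifts in EC10 NKH 477-induced CRE-bla reporter activity in CHO cells. Incubation lasted 3 h at 37 °C before CCF4 substrate (2 h, room temperature) and ratiometric 460/530 nm reading.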
# Potency is the fitted concentration of half-maximal effect; tags give direction and shape of the fitted curve.
Compound,"activity change, negative = inhibition",Potency
O=c1c2[nH]c3ccc(F)cc3c2ncn1CCCn1ccnc1,inconclusive: 4.6%,–
Cn1c(=O)c2c(nc(N3CCOCC3)n2CC(=O)C23CC4CC(CC(C4)C2)C3)n(C)c1=O,inconclusive: 23.3%,–
C=C1CC[C@@H](O)C/C1=C/C=C1\CCC[C@]2(C)[C@@H]1CC[C@H]2[C@@H](C)/C=C\[C@@H](C)C(C)C,–,"inconclusive: 31.6 µM [falling, single point]"
O=C(OC[C@@H](O)CO)c1ccccc1Nc1ccnc2cc(Cl)ccc12,–,"inconclusive: 12.6 µM [rising, partial curve]"
COCC(=O)NC1CCN(C(=O)Nc2ccc(Br)cc2)CC1,inactive: -8.44%,–
CS(=O)(=O)Nc1cccc(-c2nc(N3CCOCC3)c3ccccc3n2)c1,–,active: 2.51 µM
CCN(CC)Cc1csc(C(N)=O)c1,inconclusive: 18%,–
COCc1nn2c(N)c(C#N)cnc2c1-c1ccccc1,–,"inconclusive: 12.6 µM [rising, single point]"
COc1ccccc1N/C(N)=N/c1nc(CSc2ccc(C)cc2)cc(=O)[nH]1,inconclusive: 1.13%,–
Cc1cc2cc(C)c3nnc(SCC(=O)NCc4ccco4)n3c2cc1C,–,"inconclusive: 15.8 µM [rising, single point]"
N#Cc1ccc(OCc2nnc(SCC(=O)N3CCCc4ccccc43)n2-c2ccccc2)cc1,inactive: -15.3%,–
Nc1ccccc1OCCOCCOc1ccccc1N,inconclusive: 7.38%,–
COc1cccc(CN2CCN(C(=O)c3cccc(F)c3)CC2)c1,inconclusive: -10.5% [at 7.6 µM],–
CCOC(=O)c1c(C)n(C)c2ccc(OCC(N)=O)cc12,–,"inconclusive: 10 µM [rising, single point]"
Cc1cc(Cl)ccc1OCCCC(=O)N1CCOCC1,–,"inconclusive: 25.1 µM [rising, single point]"
CS(=O)(=O)N1CCCC(C(=O)NCc2ccc(F)cc2Cl)C1 (stereo unspecified),–,active: 10 µM
Cc1ccc(C(=O)N2CCOCC2)cc1Cl,–,"inconclusive: 0.0631 µM [rising, full curve, poor fit]"
CCOC(=O)c1cc(=O)n2[nH]c(-c3ccc(C)cc3)cc2n1,inactive: 4.64%,–
Cn1c(=O)cc(OCCCC(=O)Nc2cccnc2)c2ccccc21,–,"inconclusive: 15.8 µM [rising, single point]"
N#C/C(=C\c1cccs1)Sc1nc2ccccc2s1,–,"inconclusive: 6.31 µM [rising, partial curve]"
CC[C@@H]1CN2CCc3cc(OC)c(OC)cc3[C@H]2C[C@@H]1C[C@@H]1NCCc2cc(OC)c(OC)cc21,inconclusive: -29.7%,–
CN1CCc2cccc3c2[C@H]1Cc1ccc(O)c(O)c1-3,inconclusive: -10%,–

Compound,"activity change, negative = inhibition",Potency
C=CCNC(=O)c1ccccc1NC(=O)c1ccccc1,inconclusive: 14%,–
CC(=O)OCCNC(=O)c1cccnc1,inconclusive: -11.8%,–
COc1cccc(-c2nccc(NCc3ccc(OC)cc3OC)n2)c1,inactive: 14.7%,–
COc1cc(-c2nnc3sc(C4CCCCC4)nn23)cc(OC)c1OC,–,active: 1 µM
O=C(Nc1ccccc1-c1nnn(CC(=O)N2CCCc3ccccc32)n1)c1ccco1,inactive: 29.1%,–
COc1cc(-n2nc(C)c3c2OC(N)=C(C#N)C3c2ccccc2)c(Cl)c(Br)c1O (stereo unspecified),inactive: -11%,–
CCOC(=O)C1CCCN(CC(=O)NC2CC2)C1 (stereo unspecified),inactive: 4.29%,–
COc1cccc(Nc2ncnc3c2cnn3C)c1,–,"inconclusive: 10 µM [rising, partial curve]"
Cc1c(O)ccc2c3c(c(=O)oc12)CCCC3,–,"inconclusive: 12.6 µM [rising, single point]"
O=C(CSc1nnc(-c2cccs2)n1CC1CCCO1)c1cc2ccccc2o1 (stereo unspecified),inactive: -13.7%,–
O=C(c1ccco1)N1CCC2(CCN(Cc3cc(C(F)(F)F)cc(C(F)(F)F)c3)CC2)CC1,inconclusive: 8.79%,–
CC(=O)N1CCN(c2ccc(NC(=O)c3ccc(C(C)(C)C)cc3)cc2)CC1,inconclusive: -29.2%,–
CCc1ccc(N2CCCn3c2nc2c3c(=O)n(CCN3CCOCC3)c(=O)n2C)cc1,inconclusive: 10.6%,–
CCOc1ccc(NC(=O)c2ccccc2CO)cc1,inconclusive: -9.13%,–
N#CCCn1c(=O)c(-c2ccc(Cl)cc2)nc2cnc(Nc3ccccc3)nc21,–,"inconclusive: 3.16 µM [falling, full curve]"
O=C(CSc1ncn[nH]1)c1ccc2c(c1)OCCO2,inactive: -8.94%,–
Cc1nc(NCCCn2ccnc2)c2oc3ccccc3c2n1,–,active: 12.6 µM
O=C(O)C1(C(=O)O)CCN(S(=O)(=O)c2ccccc2)CC1,inconclusive: 24.4% [at 7.6 µM],–
C(=N/Nc1ccccn1)/c1cccnc1,inactive: 1.36% [at 7.6 µM],–
COC(=O)N1CC=CC1(C)C(=O)NCc1ccc(C)o1 (stereo unspecified),inactive: 2.91%,–
COc1cccc(-c2nc(NCc3cccs3)c3ccccc3n2)c1,inconclusive: -16.9%,–
CCCCC(C=O)CC (stereo unspecified),inactive: -2.66%,–

Compound,"activity change, negative = inhibition",Potency
CCCCn1c(C)nc2c(=O)n(C)c(=O)[nH]c21,inactive: 1.74%,–
O=C(Nc1ccccc1)N1CCCC2(CCN(S(=O)(=O)c3ccccc3)CC2)C1,inactive: -18%,–
O=C(NCc1cccnc1)c1cn(CCc2ccccc2)nn1,inactive: -0.321%,–
Cc1ccccc1Cn1nc(C)c(NC(=O)c2cc3nc(-c4ccco4)cc(C(F)(F)F)n3n2)c1C,–,active: 2.51 µM
COc1ccc(Oc2ncc3nc(C)c(=O)n(Cc4cccs4)c3n2)cc1,–,active: 10 µM
CCCn1c(SCC(=O)Nc2cc(C)on2)nc2c1c(=O)n(C)c(=O)n2C,inconclusive: -26.5%,–
O=C(Nc1ccc(-c2nc3ncccc3o2)cc1)c1ccc(Br)o1,inactive: 24.5%,–
COc1ccccc1NC(=O)CSc1nnc(-c2ccco2)o1,inactive: 0.159%,–
N=C(C[C@@H](O)COc1ccccc1-c1ccccc1)N1CCCCC1,inactive: -24.9%,–
O=C(Nc1nncs1)c1ccccc1NS(=O)(=O)c1cccs1,–,"inconclusive: 1 µM [rising, full curve]"
COc1ccc(NC(=O)Nc2nnc(N3CCC(C)CC3)s2)cc1OC,inconclusive: 3.17%,–
Cc1cc(O)cc(O)c1-c1onc(C(F)(F)F)c1-c1cscn1,inconclusive: 6.83%,–
COc1ccc2cc3cc(C(=O)NCCN4CCN(c5ccccc5F)CC4)oc3nc2c1,inconclusive: 17.5%,–
Cc1nc(SCc2ccccc2)c(C(F)(F)F)c(=O)[nH]1,–,"inconclusive: 12.6 µM [rising, single point]"
COc1cccc(C(=O)CSc2nnc(-c3cc(OC)c(OC)c(OC)c3)o2)c1,–,"inconclusive: 12.6 µM [rising, partial curve]"
C[C@@]12CCC(=O)C=C1CC[C@H]1[C@@H]2[C@@H](O)C[C@]2(C)[C@@H]1CC[C@@]2(O)C(=O)CO,inactive: -11.2% [at 7.6 µM],–
CCOC(=O)c1c(C)n(C)c2ccc(OCC(O)Cn3nc(C)c(Br)c3C)cc12 (stereo unspecified),–,"inconclusive: 2.51 µM [rising, partial curve]"
CCCCCc1cc(O)c2c(C)cc(=O)oc2c1,–,"inconclusive: 2 µM [rising, single point]"
c1ccc(C(c2nnnn2Cc2cccs2)N2CCN(C3CCCC3)CC2)cc1 (stereo unspecified),inconclusive: -13.6%,–
O=C(Cn1ncc2c(=O)oc3ccccc3c21)Nc1nc2ccccc2s1,inactive: -3.99%,–
O=C(Nc1cccc(-c2cn3cccnc3n2)c1)c1ccco1,–,"inconclusive: 0.00501 µM [rising, full curve, poor fit]"
CCOc1ccccc1CNC(=O)c1cc2occc2n1C,inactive: -2.17%,–

Compound,"activity change, negative = inhibition",Potency
COc1ncc2nc(-c3ccccc3)c(=O)n(Cc3cccs3)c2n1,–,active: 12.6 µM
CCC/C=C(\CCC)C(NS(=O)(=O)c1ccc(C(F)(F)F)cc1)c1ccc(C(=O)OC)cc1 (stereo unspecified),inconclusive: 27.3%,–
Oc1c(C(c2cccs2)N2CCC3(CC2)OCCO3)sc2ncnn12 (stereo unspecified),–,"inconclusive: 10 µM [rising, partial curve]"
CC(=O)Nc1nc(=S)n(-c2ccccc2)[nH]1,inconclusive: 3% [at 7.6 µM],–
COc1ccc2cc(CCNC(=O)CC(C)(C)C)c(=O)[nH]c2c1,inconclusive: -3.11%,–
COCCn1c(-c2ccco2)nc2nc3ccccc3nc21,–,active: 7.94 µM
Cc1ccc(NC(=O)CSc2nccc(=O)[nH]2)c(S(=O)(=O)N2CCOCC2)c1,inconclusive: 19.5%,–
COc1cc(NC(=O)C2CCCO2)c(C(=O)O)cc1OC (stereo unspecified),inactive: -1.09%,–
O=C(Nc1nnc(N2CCCCCC2)s1)c1cc(-c2ccc(Br)cc2)on1,inconclusive: -5.09%,–
Cn1cccc1C(=O)N1CCC2(CCN(C(=O)Nc3cccc(C#N)c3)CC2)CC1,inactive: -6.85%,–
Cc1ccc(SCCNS(=O)(=O)c2ccc3c(c2)OCCO3)cc1,–,"inconclusive: 25.1 µM [rising, single point]"
COC(=O)C1(CO)NC(c2cccs2)C2C(=O)N(c3ccccc3)C(=O)C21 (stereo unspecified),inactive: -8.61%,–
CC(C)C(=O)Nc1ccccc1N1CCN(S(C)(=O)=O)CC1,–,active: 10 µM
Cc1[nH]c2ccccc2c1C(=O)COC(=O)C1CCC(=O)N1 (stereo unspecified),inconclusive: -11.1%,–
CCOC(=O)N1CCC(NC(=O)CCC(=O)N2CC(C)Oc3ccc(C)cc32)CC1 (stereo unspecified),inactive: 5.97%,–
CC1CCCC(C)N1CCCNC(=O)c1cc2c(=O)n(C)c3ccccc3c2n1C (stereo unspecified),–,"inconclusive: 10 µM [rising, partial curve]"
CC[C@H]1NC(=O)c2cc(S(N)(=O)=O)c(Cl)cc2N1,inactive: -4.06% [at 17.1 µM],–
Cc1ccccc1-c1nc(NC2CC2)c2ccccc2n1,inconclusive: -0.918%,–
O=C(Oc1ccccc1)N1CCC2(CC1)CN(c1ccncc1)C2,inactive: 15.8%,–
COc1cccc(-c2csc3nnc(SCC(=O)NCc4cccs4)n23)c1,inconclusive: 22.7%,–
